Paper PMC12040169 (PLOS Biology, 2025)
This is one part of the list.

tested on: T1, C. trachomatis L2/434/Bu expressing GFP (CTL2-GFP); design: species or system HeLa; C. trachomatis total inclusion area by high-content imaging, normalised to DMSO; conditions: total inclusion area; 28.5 h, 10 µM; inhibitor
T1 construct: L2/434/Bu GFP intracellular growth in HeLa cells
Method in brief: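 Host cell viability was gauged from Hoechst-stained nuclei counts, while chlamydial growth was taken from total inclusion area and inclusion number per well. Cells were fixed and imaged by high-content microscopy once bulk GFP and resorufin fluorescence had been measured.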

Going from O=C(CSc1n[nH]c(=O)n1C1CC1)NCCCSc1ccccc1 [CBK295620] to Cc1nn(-c2ccccc2)c(C)c1CNC(=O)C1C2C=CC(C2)C1C(=O)O (stereo not shown) [CBK286877], the “% of control remaining” value falls from 94.4371 to 88.5342.

Compared with Cn1nccc1CN1CCOC(c2nc(C(C)(C)C)cs2)C1 (stereo not shown) [CBK304690], Cc1ncc(CN2CCCC(O)(c3ccc(F)cc3)CC2)n1C (stereo not shown) [CBK284836] is higher in “% of control remaining” value: 85.2087 for the first, 89.9896 for the second.

Compared with c1ccc2c(c1)CC(Oc1cncc(N3CCNCC3)n1)C2 [CBK000242G], O=C(/C=C/c1cccnc1)Nc1cncc(OC2CCNCC2)n1 [CBK038919T] is higher in “% of control remaining” value: 44.8954 for the first, 101.529 for the second.

Compared with CC1(C)C[C@H](NC(=O)c2cccs2)[C@@]2(CCC(=O)N3CCCC3)CC[C@](C)(O)C[C@@H]12 [CBK289042], COC(=O)[C@@H](C)NC(=O)[C@@H]1CN(C(=O)NC(C)C)CCN1C(=O)c1cccs1 [CBK289624] is lower in “% of control remaining” value: 92.3533 for the first, 87.2687 for the second.

Going from CC(C)(C)OCc1[nH]n(CCc2ccccc2)c(=O)c1Cc1c(Cl)cccc1Cl [CBK091452] to COc1ccc(Cn2c(=O)n(C(=O)CCc3cccc(OC)c3)c3ccccc32)cc1 [CBK106557], the “% of control remaining” value falls from 92.7148 to 72.9231.

First: Cc1cc(Cl)ccc1NC(=O)CCC(=O)N/N=C/c1cccnc1 [CBK261945]
Second: O=C(Nc1cccnc1)c1cc(C(=O)c2ccc(Cl)cc2Cl)c[nH]1 [CBK107406]
The “% of control remaining” value of the first is lower: 64.2554 for the first, 75.3398 for the second.

Going from C[C@@H]1CN2CCCC2CN1CCc1ccccc1 (stereo partly shown) [CBK285424] to OCCOCCN1CCN(C(=S)Nc2ccccc2)CC1 [CBK018046], the “% of control remaining” value falls from 93.3647 to 62.714.

First: Cc1cc(NS(=O)(=O)c2ccc(-c3ccon3)s2)n(C)n1 [CBK067257]
Second: CCNS(=O)(=O)c1ccc2c(c1)N(Cc1csnn1)CC2 [CBK306161]
The “% of control remaining” value of the first is higher: 134.422 for the first, 51.0639 for the second.

Compared with O=C(O)c1cc(NS(=O)(=O)c2ccc3c(c2)OCCCO3)ccc1F [CBK296731], O=C(/C=C/c1ccc(Br)cc1)N1CCN(Cc2ccc3c(c2)OCO3)CC1 [CBK074434] is higher in “% of control remaining” value: 75.1319 for the first, 85.7828 for the second.

First: COc1cccc(-c2ccc3ccc(N)nc3n2)c1 [CBK061640]
Second: COc1ccc(C(O)c2coc3ccc(O)c(CN(C)C)c23)cc1 (stereo not shown) [CBK263083]
The “% of control remaining” value of the first is higher: 105.786 for the first, 101.769 for the second.

Compared with CC(C)n1nnnc1-c1ccccc1NS(=O)(=O)c1cn[nH]c1 [CBK305542], COCCNC(=O)c1cnn2c(C)c(Cc3ccccc3C(F)(F)F)c(C)nc12 [CBK165210] is higher in “% of control remaining” value: 55.1806 for the first, 112.625 for the second.

First: CCOC(=O)N1CCN(S(=O)(=O)c2ccc3c(c2)n(C)c(=O)n3C)CC1 [CBK304620]
Second: CCOC(=O)N1CCN(S(=O)(=O)c2coc(C)c2C(=O)OC)CC1 [CBK057079]
The “% of control remaining” value of the first is lower: 31.2386 for the first, 79.0404 for the second.

Going from O=C(Nc1ccccn1)NC1CCS(=O)(=O)C1 (stereo not shown) [CBK021330] to CC(Cc1ccccn1)NC(=O)Cc1ccc2c(c1)CCCO2 (stereo not shown) [CBK282115], the “% of control remaining” value rises from 81.6954 to 89.0851.

Compared with COc1ccc(C(NC(=O)C2CCN(CCOc3ccc(Br)cc3)CC2)c2ccco2)cc1 (stereo not shown) [CBK148311], COc1ccc(CN2CCN(C(=O)c3ccc(C#N)cc3)CC2)cc1 [CBK305698] is lower in “% of control remaining” value: 95.7037 for the first, 70.8857 for the second.

First: CC(=O)c1cnc2nc(-c3cccnc3)nn2c1C [CBK287859]
Second: Cc1ccc2nsnc2c1NC(=O)CSc1nccn1C [CBK269411]
The “% of control remaining” value of the first is lower: 89.2056 for the first, 101.541 for the second.

Compared with CC(=O)Nc1ccc(S(=O)(=O)Nc2nc3ccccc3nc2Nc2ccc(C(=O)O)cc2)cc1 [CBK296079], O=[N+]([O-])c1ccccc1S(=O)(=O)N1CCN(S(=O)(=O)c2ccc3ccccc3c2)CC1 [CBK264296] is higher in “% of control remaining” value: 99.1418 for the first, 120.523 for the second.

First: O=C(OCc1ccc2sccc2c1)N1CCOCC1 [CBK200163]
Second: CCCc1oc(C(=O)O)cc1CN1CCOCC1 [CBK267984C]
The “% of control remaining” value of the first is lower: 86.7781 for the first, 96.3087 for the second.

First: CCn1cc(CN2CCCN(C(=O)c3ccc(Cl)cn3)CC2)cn1 [CBK304760]
Second: CCN(Cc1ccncc1)C(=O)NCCN1CCOCC1 [CBK145055]
The “% of control remaining” value of the first is higher: 98.218 for the first, 97.1178 for the second.

Going from CC(=O)N1CCc2sccc2C1c1ccc(NCc2ccc(F)cc2F)cc1 (stereo not shown) [CBK286455] to Cc1ccc(NC(=O)CCc2c(C)nc(N3CCOCC3)[nH]c2=O)cc1 [CBK304985], the “% of control remaining” value falls from 117.525 to 43.3799.

First: Cc1nc(C)c(C(=O)NC2CCCNC2=O)s1 (stereo not shown) [CBK281628]
Second: O=C(Cn1c(C2CCNCC2)cc2cccnc21)N1CCCC1 [CBK285013]
The “% of control remaining” value of the first is lower: 95.9304 for the first, 106.19 for the second.

First: c1cnc(NCc2cc3n(n2)CCN(CC2CCCNC2)C3)nc1 (stereo not shown) [CBK306981]
Second: COc1ccc(C(C)NC2CCN(c3nc(C)cs3)CC2)cc1F (stereo not shown) [CBK306362]
The “% of control remaining” value of the first is higher: 64.947 for the first, 61.0119 for the second.

First: CCC(c1nc2ccccc2c(=O)n1-c1cccnc1)N1C(=O)c2ccccc2C1=O (stereo not shown) [CBK268300]
Second: O=C1/C(=C\Nc2cccc3cccnc23)Sc2ccccc21 [CBK261647]
The “% of control remaining” value of the first is higher: 120.216 for the first, 66.5068 for the second.

Going from CSCCNC(=O)c1coc(COc2ccc3sc(C)nc3c2)n1 [CBK307004] to Cc1c(-c2ccc(OCC(N)=O)cc2)nc2ccc(Br)cc2c1C(=O)O [CBK287050], the “% of control remaining” value rises from 98.594 to 156.897.

Going from Cc1cccc(Nc2[nH]c3cc(C)ccc3c2[N+](=O)[O-])c1 [CBK266303] to COc1cc(Nc2cc(-c3ccc(F)c(F)c3)ncn2)cc(OC)c1OC [CBK090711], the “% of control remaining” value falls from 103.829 to 86.6219.

Compared with O=C(c1sc2ccccc2c1Cl)n1cnc2ccccc21 [CBK262216], Brc1c(OCCNCCN2CCOCC2)ccc2ccccc12 [CBK268576G] is lower in “% of control remaining” value: 112.425 for the first, 98.693 for the second.

Going from NC(=O)c1c(NC(=O)Cn2ccc([N+](=O)[O-])n2)sc2c1CCCC2 [CBK269139] to CCN1C(=O)CC2(C1=O)C(=O)N(Cc1nc(OC)cc(OC)n1)c1ccccc12 (stereo not shown) [CBK075510], the “% of control remaining” value rises from 68.6636 to 106.161.
